Among all 48,000 compounds or so, about 1,200 (2.5%) were called active. About 2% were inconclusive and are not listed.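 How the source made its calls: active means activation of at least 60% and not above a set upper limit (about 1 call in 100 departs from these limits); inconclusive means activation of 40% to 60%, or above that upper limit; inactive means activation under 40%.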 The list shows a part of the results.
target: Probable G-protein coupled receptor 32 (Homo sapiens) (UniProt O75388); assay: qHTS for Agonists of Human Resolvin D1 Receptor DRV1; conditions: CHO-K1 GPR32 beta-arrestin PathHunter luminescence, 90 min; at 76.9 µM; stronger effect = higher value; zero percent set by DMSO-only wells; further: 0% is about no effect
How it was run: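 Readings come from a cell-based beta-arrestin complementation format: CHO-K1 GPR32 stable cells (2,500/well) treated 90 min with compounds, then beta-Gal substrate added for 1 h before chemiluminescence imaging.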

Sequence of UniProt O75388 (O75388 whole entry, looked up): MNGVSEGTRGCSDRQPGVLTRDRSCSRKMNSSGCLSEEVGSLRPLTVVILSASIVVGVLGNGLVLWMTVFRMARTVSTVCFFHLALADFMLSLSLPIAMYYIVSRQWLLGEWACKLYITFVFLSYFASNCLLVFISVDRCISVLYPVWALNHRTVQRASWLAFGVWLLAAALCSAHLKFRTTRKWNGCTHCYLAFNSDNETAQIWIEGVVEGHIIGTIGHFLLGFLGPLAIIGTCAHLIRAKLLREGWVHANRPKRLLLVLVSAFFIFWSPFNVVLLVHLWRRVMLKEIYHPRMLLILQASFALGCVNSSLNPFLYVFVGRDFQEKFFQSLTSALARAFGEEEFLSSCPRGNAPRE

activation, inactive:
CN(c1nnc(NC(=O)Nc2ccccc2C(F)(F)F)s1)C1CCCCC1 -28.1%
NC(=O)N1c2ccccc2CC(=O)c2ccccc21 -8.27%
COc1ccc(NC(=O)Cn2c(=O)c3ccccc3n3nncc23)cc1Cl 5.8%
Cc1cccc(OCC(=O)N2CCC(c3nc4ccccc4o3)CC2)c1C -8.01%
Cc1cc(C)c2c(=O)cc(C(=O)Nc3sc4c(c3C(=O)NCc3ccco3)CCCC4)oc2c1 15.3%
CS(=O)(=O)CC[C@@H](C(=O)NCCc1ccccc1)N1Cc2ccccc2C1=O -8.51%
COCc1cc(C)nc2c1C(=O)NC(c1ccc(NC(C)=O)cc1)N2Cc1ccccc1 (stereo not drawn) 35.3%
COc1ccc(S(=O)(=O)c2c(Nc3ccc(C)cc3C)sc(C(=O)c3ccc(F)cc3)c2N)cc1 -32.7%
Cc1cc(C)c(NC(=O)C2CCN(S(=O)(=O)c3c(C)noc3/C=C/c3ccccc3F)CC2)c(C)c1 -6.45%
CCOc1ccc(NC(=O)N(Cc2cn(CC)c3ccccc23)C2CCCCCC2)cc1 -25.8%
CN(C)c1ccc(C(CNC(=O)c2ccccc2Cl)N2CCCC2)cc1 (stereo not drawn) -7.21%
CN1C(=O)Cc2cc(S(=O)(=O)NCc3ccc(Cl)cc3)ccc21 -24.5%
Cc1nnsc1C(=O)Oc1ccc(Cl)cc1 15.2%
COc1ccc(N2CCN(CCCNC(=O)c3cnn(-c4ccc(C)cc4)c3-n3cccc3)CC2)cc1 -12.2%
O=C(NCc1ccccc1)C(=O)NCC(c1cccs1)S(=O)(=O)c1cccs1 (stereo not drawn) -30.7%
O=C(CSc1nc2c([nH]c3ccccc32)c(=O)n1-c1cccc(Cl)c1)c1ccccc1 15%
CCC(Sc1nnc2c(n1)[nH]c1ccccc12)C(=O)Nc1ccccc1OC (stereo not drawn) -6.96%
CCc1ccccc1S(=O)(=O)Cc1ccc(C(=O)NCCc2ccc(C)cc2)o1 31.4%
Cc1cc(C)cc(C(=O)NCCc2csc(-c3ccc(C(F)(F)F)cc3)n2)c1 -18.9%
CCc1ccccc1NC(=O)CSc1ncc2c(n1)-c1cc(Cl)ccc1N(Cc1ccccc1)S2(=O)=O 2.24%
COc1cccc(N2CCN(C3=NS(=O)(=O)C(c4ccc(C)cc4)=C3C)CC2)c1 1.56%
Cc1ccc(Cn2c(=O)n(CCCCC(=O)NCc3ccc4c(c3)OCO4)c(=O)c3ccccc32)cc1 -7.33%
COc1ccc(NC(=O)c2ncn(-c3ccccc3)n2)cc1Cl 21.7%
CCc1ccc(-n2nc(C)c3c(C)cc(=O)n(CC(=O)Nc4cc(C)ccc4C)c32)cc1 1.05%
Cc1c(C(=O)OCC2CCCCC2)[nH]c2c1C(=O)CC(c1ccccc1Cl)C2 (stereo not drawn) 4.16%
COc1ccc(CCNC(=O)CCc2c(C)nc3c4cccnc4nn3c2C)cc1OC -5.27%
CCCCn1cc(S(=O)(=O)c2ccc(OC)cc2)c(=O)c2cc(F)c(N3CCOCC3)cc21 -16.5%
COc1ccccc1NC(=O)N1CCN(Cc2nc3ccc(C)cc3o2)CC1 -34.4%
CC(=O)Nc1c(C)nn(-c2ccccc2)c1N1CCC(C(=O)Nc2cc(F)ccc2F)CC1 -5.95%
Cc1ccc(N2C(=O)c3n[nH]c(C)c3C2c2ccccc2Cl)cc1 (stereo not drawn) 31.2%
Cc1cc(C)c(NC(=O)Cn2c(=O)n(CC3CCCO3)c(=O)c3ccccc32)c(C)c1 (stereo not drawn) -1.46%
Cn1cc(S(=O)(=O)N2CCCC2)cc1C(=O)N1CCN(c2cccc(Cl)c2)CC1 -21.8%
COc1cccc(NC(=O)N(CCC(C)C)C2CCN(C(C)C)CC2)c1 -5.29%
Cc1ccccc1OCC(=O)Nc1ccc(-c2nc3cc(Cl)cc(Cl)c3o2)cc1 -9.76%
CCCSc1ncc(Cl)c(C(=O)N(Cc2ccccc2)c2ccc(OC)cc2)n1 -25.1%
Cc1ccc(CNC(=O)C2CCN(S(=O)(=O)c3ccc4nc5c(c(C(=O)O)c4c3)CC(C)CC5)CC2)cc1 (stereo not drawn) -10.4%
CCc1cnc2c(c1SCC(=O)NCc1ccc(C)cc1)c(=O)n(C)c(=O)n2C -2.13%
C[C@@H](N)C(=O)O -21.4%
CC(=O)c1ccc(NS(=O)(=O)c2ccc(Br)s2)cc1 47.9%
Cn1ccc2c(OCC(=O)Nc3ccc(OC(F)(F)F)cc3)cccc2c1=O 35.6%
CCn1cc(C(=O)N2CCN(c3cc(Cl)ccc3C)CC2)c(=O)c2cc(S(=O)(=O)N3CCCC3)ccc21 -4.63%
COc1cc(Cl)c(C)cc1NC(=O)c1cc2c(=O)oc3ccccc3c2s1 -15.8%
CCOc1ccc(C(=O)OCc2cc(=O)n3nc(C4CC4)sc3n2)cc1 18.9%
CC(C)(C)C1CCc2c(sc(NC(=O)c3ccco3)c2C(=O)Nc2ccccc2Cl)C1 (stereo not drawn) 13.1%
COc1cc2nc(SCC(=O)Nc3ccccc3C)n3nc(CCn4c(C)nc5ccccc54)nc3c2cc1OC -0.929%
CCOC(=O)CSc1nc2ccc(NC(=O)COc3ccc(F)cc3)cc2s1 16.8%
Cc1cccc2sc(N(Cc3cccnc3)C(=O)CCOc3ccccc3)nc12 -38.1%
CCOC(=O)c1ccc(N2CCN(c3ccccc3OC)CC2)c(NC(=O)Nc2ccc(CC)cc2)c1 -30.7%
CCOCCCNC(=O)c1cn(CC)c2ccc(S(=O)(=O)N3CCOCC3)cc2c1=O -3.94%
Cc1cc(C(=O)N2CCN(c3cccc(Cl)c3)CC2)c2c(C)nn(-c3ccccc3Cl)c2n1 -0.675%
COc1ccc(CNC(=O)C2=CC(c3ccc(OC)c(OC)c3)=NS(=O)(=O)N2C)cc1 -11.1%
O=C(COc1ccc(Cl)cc1)Nc1ccc2nc(SCC(=O)N3CCOCC3)sc2c1 16.2%
CCOc1ccc(S(=O)(=O)NCc2ccc3c(c2)CCN3C(=O)c2ccc(C)cc2)cc1 -17.2%
